Hit rate of the full screen: of about 200,000 compounds, about 4,500 (2.2%) were called active. Inconclusive means that the source gave no clear call. Such entries were picked first, then a sample of the others. Calls follow the shape of the dose curve; as a rule, active = well fitted inhibition curve with a large enough effect; inconclusive = small, poorly fitted or top-dose-only effect, or effect the other way; inactive = flat fitted curve, though single readings scatter. Potencies of inconclusive entries are doubtful fits and often do not repeat.
What follows are compounds tested against Cruzipain (Trypanosoma cruzi) (UniProt P25779) (assay: qHTS Assay for Promiscuous and Specific Inhibitors of Cruzain (without detergent)). Details: purified cruzain, Z-FR-AMC fluorescence, no detergent.
UniProt P25779, sequence (P25779 whole entry, looked up): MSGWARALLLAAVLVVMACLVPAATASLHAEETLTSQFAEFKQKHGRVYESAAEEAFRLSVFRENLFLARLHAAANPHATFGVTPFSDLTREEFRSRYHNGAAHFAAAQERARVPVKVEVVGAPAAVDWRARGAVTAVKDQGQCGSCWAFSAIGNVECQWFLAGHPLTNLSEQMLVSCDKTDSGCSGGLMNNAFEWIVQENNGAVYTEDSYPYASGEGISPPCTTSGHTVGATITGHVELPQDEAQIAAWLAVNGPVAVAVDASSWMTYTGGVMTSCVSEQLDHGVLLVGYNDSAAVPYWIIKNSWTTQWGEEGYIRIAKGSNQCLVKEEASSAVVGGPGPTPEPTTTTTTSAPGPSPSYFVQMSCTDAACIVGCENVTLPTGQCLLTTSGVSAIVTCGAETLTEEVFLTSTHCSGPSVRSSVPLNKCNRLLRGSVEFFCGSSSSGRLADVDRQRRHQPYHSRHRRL
Method in brief: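 Detergent-free condition (0.00005% Triton X-100) in acetate buffer pH 5.5 with DTT. 1.5 nM enzyme and compound were pre-mixed 15 min, then 2 uM Z-FR-AMC substrate added; reaction progress from fluorescence change between first and third reads (60 s).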
For `Cc1ccc(Cn2nnc3c(=O)[nH]c(C4CCN(C(=O)Cc5cccs5)CC4)nc32)cc1`, the Potency was inconclusive: 39.8 µM [activator, single point].
In the case of `Cc1cc(C)nc(N2CCCC(C(=O)NCC(c3ccccc3)c3ccccc3)C2)n1` (stereo not given), the Potency is reported as inconclusive: 39.8 µM [activator, single point].
For `Cc1ccc(C(=O)Nc2ccc3oc(-c4ccccc4C)nc3c2)cc1`, the max response, negative = inhibition was inactive: -4.1%.
`CCCN(C(=O)Nc1cn(CC(C)C)c(=O)c2ccccc12)c1ccc(F)cc1` was tested, and the max response, negative = inhibition was inactive: -5.38%.
With `O=C(NCC(c1ccco1)S(=O)(=O)c1cccs1)c1ccc(Cl)cc1` (stereo not given) the max response, negative = inhibition was inactive: 2.61%.
With `Cc1ccnc2nc(C(=O)Nc3cc(Cl)ccc3N3CCOCC3)nn12` the Potency was inconclusive: 39.8 µM [activator, single point].
For `Cc1ccc(-c2cc(-c3ccccc3)no2)c(O)c1`, the Potency was inconclusive: 31.6 µM [inhibitor, single point].
In the case of `COc1ccc2cc(CN(CC3CCCO3)S(=O)(=O)c3ccc(C(C)=O)cc3)c(=O)[nH]c2c1` (stereo not given), the Potency is reported as inconclusive: 31.6 µM [activator, single point].
For `Nc1cc(C(=O)O)c(O)c(S(=O)(=O)O)c1`, the max response, negative = inhibition was inactive: 0.144%.
For `CC(C)c1ccc(N2CCN(C(=O)c3ccccc3NC(=O)/C=C(\C(=O)O)c3ccccc3)CC2)cc1`, the Potency was inconclusive: 39.8 µM [activator, single point].
With `Cc1ccc(NC(=O)CS(=O)CC(=O)N(C2CCCC2)C(C)C(=O)NC2CCCCC2)cc1` (stereo not given) the Potency was inconclusive: 31.6 µM [activator, single point].
In the case of `Cc1ccc(S(=O)(=O)N2CCCN(S(=O)(=O)c3ccc(C(F)(F)F)cc3)CC2)cc1`, the Potency is reported as inconclusive: 39.8 µM [inhibitor, single point].
`O=C(CSc1nc(-c2ccccc2)nc2ccccc12)Nc1nccs1` was tested, and the Potency was inconclusive: 39.8 µM [inhibitor, single point].
For `CCCCOc1ccc(NC(=O)[C@@H]2CCCN2C(=O)C2CCN(S(=O)(=O)c3ccc(C)cc3)CC2)cc1`, the Potency was inconclusive: 31.6 µM [activator, partial curve].
In the case of `O=C(NCCc1ccc(Cl)cc1)c1ccc(CSCc2cccc(Cl)c2)o1`, the max response, negative = inhibition is reported as inactive: -2.19%.
With `Cn1c(=O)[nH]c(=O)c2c1nc(CN1CCN(c3ccccc3F)CC1)n2Cc1ccc(F)cc1` the Potency was inconclusive: 39.8 µM [activator, single point].
With `CCOc1cc(/C=C2\N=C(SCC)SC2=O)cc([N+](=O)[O-])c1OC(C)=O` the Potency was inconclusive: 39.8 µM [activator, single point].
In the case of `COc1cccc(-c2nc(SCC(=O)Nc3ccc4c(c3)OCCO4)c(-c3ccc(C)cc3)[nH]2)c1`, the Potency is reported as inconclusive: 39.8 µM [inhibitor, single point].
`COc1ccc(Cl)cc1NC(=O)c1cc(S(=O)(=O)N(C)Cc2ccccc2)ccc1F` was tested, and the max response, negative = inhibition was inactive: 1.27%.
`CCC(SC1=N/C(=C/c2ccccc2)C(=O)N1c1ccccc1)C(=O)Nc1cc(C)on1` (stereo not given) was tested, and the Potency was active: 31.6 µM.
For `COc1ccc(N2CCC(CNC(=O)Nc3ccc(OC)cc3OC)C2)cc1` (stereo not given), the Potency was inconclusive: 31.6 µM [inhibitor, single point].
With `Cc1ccc(C2CCN(C(=O)c3cnn(-c4ccc(C)c(C)c4)c3C3CCN(C(=O)OC(C)(C)C)CC3)C2)cc1` (stereo not given) the max response, negative = inhibition was inactive: -16.2%.
With `Cc1[nH]c2ccccc2c1NC(=O)CN1CCN(c2cccc(C(F)(F)F)c2)CC1` the Potency was inconclusive: 31.6 µM [activator, single point].
In the case of `COc1ccc(C)cc1N1C(=N)/C(=C2/Nc3ccccc3S2)C(c2ccccc2)C1=O` (stereo not given), the Potency is reported as inconclusive: 39.8 µM [inhibitor, single point].
For `COc1cccc(OC)c1OCCCSc1nc(C)cc(=O)[nH]1`, the Potency was inconclusive: 6.31 µM [inhibitor, partial curve].
In the case of `COc1ccc(OC)c(NC(=O)CC(=O)Nc2ccc3nc4n(c(=O)c3c2)CCCCC4)c1`, the Potency is reported as inconclusive: 39.8 µM [activator, single point].
In the case of `Cc1nc(SCC(=O)Nc2ccc(C(=O)O)cc2)n[nH]1`, the max response, negative = inhibition is reported as inactive: 6.79%.
In the case of `COc1cc(/C=C/C(=O)NCCn2c(C)cc3ccccc32)cc(OC)c1OC`, the Potency is reported as inconclusive: 39.8 µM [activator, single point].
`CSc1nc(SCCO)c2sc3nc(-c4ccco4)c4c(c3c2n1)CC(C)(C)OC4` was tested, and the Potency was inconclusive: 10 µM [activator, partial curve].
In the case of `CCc1ccccc1NC(=O)Cn1nc(N2CCN(c3ccccc3OC)CC2)ccc1=O`, the Potency is reported as inconclusive: 39.8 µM [activator, single point].
`CCOC(=O)c1c(CN2CCOCC2)n(-c2ccccc2)c2cc(Br)c(OC)cc12` was tested, and the Potency was inconclusive: 39.8 µM [activator, single point].
For `COc1cc(-c2nc(-c3ccc(NC(=O)c4ccc5c(c4)OCO5)cc3)no2)cc(OC)c1OC`, the Potency was inconclusive: 31.6 µM [activator, single point].
In the case of `O=C(Cc1ccc(Br)cc1)NC1CCCCC1`, the max response, negative = inhibition is reported as inactive: 4.16%.
With `Cc1nn(C(=O)c2cccc([N+](=O)[O-])c2C)c(C)c1S(=O)(=O)N1CCCCCC1` the max response, negative = inhibition was inactive: -6.61%.
For `CCCSc1nc2c(c(=O)n1-c1ccc(OCC)cc1)SCC2`, the Potency was inconclusive: 31.6 µM [inhibitor, single point].
For `COc1ccc(/C=c2\sc3nc(-c4ccccc4OC)nn3c2=O)c(OC)c1`, the Potency was inconclusive: 31.6 µM [activator, single point].
With `CCOC(=O)C1=C(C)N(C)C(C)=C(C(=O)OCC)C1c1ccc(C(=O)OC)cc1` the Potency was inconclusive: 39.8 µM [activator, single point].
With `COC(=O)CN(c1cc(Cl)ccc1OC)S(=O)(=O)c1ccc(OC)c(OC)c1` the Potency was inconclusive: 31.6 µM [activator, single point].
For `Cc1c(Cl)ccc2sc(N3CCN(C(=O)C4CC4)CC3)nc12`, the Potency was inconclusive: 31.6 µM [activator, single point].
With `COc1ccc(-c2onc(C)c2C)cc1S(=O)(=O)N1CCN(c2cc(C)ccc2C)CC1` the max response, negative = inhibition was inactive: -5.38%.
Also: nearly all actives have a fitted effect of over 40% in size.
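For max response, negative = inhibition in this document: plate controls were enzyme without inhibitor for no effect and buffer without enzyme for full effect.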
Potency is read from the fitted curve at half-maximal effect; tags tell the direction and shape of the fitted curve.
